Source: ChEMBL document CHEMBL4888484, “Replenishing the malaria drug discovery pipeline: Screening and hit evaluation of the MMV Hit Generation Library 1 (HGL1) against asexual blood stage Plasmodium falciparum ,using a nano luciferase reporter read-out” (2022)
Among all 150,000 compounds or so, about 540 (0.36%) showed an effect of 50% or more. This is one part of the list.

These compounds were tested on Plasmodium falciparum (assay: Primary screen in NF54 nanoGlo assay, in single point, at 2uM, 72h; a lower Z score goes with more inhibition). Settings: timepoint 72 hour.
Format: functional, Erythrocyte

SMILES | % Inhibition [%] | Z score
CC1CC1c1ccc(CN(C)Cc2nnsc2Cl)o1 (stereo unspecified) | -6 | 0.84
C[C@@H](C(=O)NC(C)(C)c1noc(C(N)=O)n1)c1ccccc1 | 2 | -0.23
Cn1nccc1CCC(=O)NS(=O)(=O)CCC1CCC1 | -8 | 1.18
Cc1ccsc1C(=O)N1C[C@H]2CC[C@@H](C1)N(CC1CC1)C2 | -12 | 1.56
COC1CCC(C(=O)N2c3ccccc3N(Cc3ccccc3)C(=O)CC2C)C1 (stereo unspecified) | -2 | 0.29
CCc1noc(C(=O)N2CCN[C@@H](Cc3ccccc3)C2)n1 | 5 | -0.91
O=C(Cc1ccc(N2CCC(NCCc3ccco3)CC2)cc1)NCc1ccccc1 | -11 | 1.66
O=C(Cn1cnc2c1CCCC2)N1CCC[C@H](O)CC1 | 5 | -0.69
CCc1[nH]nc(-c2cccc(F)c2)c1NC(=O)Nc1cc(OC)cc(OC)c1 | -9 | 1.15
O=c1n(Cc2cnoc2C2CC2)nc2cnccn12 | -5 | 0.83
O=S(=O)(Nc1ncccc1N1CCOCC1)c1ccccc1F | -2 | 0.38
Cc1cc(C)c(CN2CC[C@H](NS(=O)(=O)N(C)C)[C@@H](O)C2)cc1C | 0 | 0.03
CS(=O)(=O)CCNC(=O)NCCOc1ccc(F)cc1F | -1 | 0.11
C[C@H](O)CN(C)S(=O)(=O)Cc1ccc(F)c(Cl)c1 | 0 | 0.01
CC(C)Oc1cnn(-c2ccccc2)c(=O)c1Nc1cccc(C(=O)NCc2ccco2)c1 | -16 | 2.3
O=C(CCc1cccc(OC(F)F)c1)N1CCN2C[C@@H](F)C[C@H]2C1 | 2 | -0.28
CNc1nc(C)cc(C(=O)N(CCc2cccc(F)c2)C2CC2)n1 | -9 | 1.23
CCOc1cc([C@H]2Nc3ccccc3C(=O)N2c2ccccc2F)ccc1OCc1ccccc1Cl | -7 | 0.89
Cc1cc(C(=O)N2CCC[C@@H]2Cc2c(F)cccc2Cl)cc(O)n1 | -3 | 0.43
CCS(=O)(=O)c1cccc(-c2nc([C@@H]3CCCO3)no2)c1 | -6 | 0.93
CC1CCCC(NC(=O)CN2CCN(C(=O)C3C4CCCC43)CC2)C1 (stereo unspecified) | -9 | 0.83
Cc1csc(N(C(=O)c2ccoc2C)C2CC2)n1 | -6 | 0.81

SMILES | % Inhibition [%] | Z score
CCCc1cc(C(=O)N2CCN(C)[C@]3(CCC(=O)N(CC)CC3)C2)n(C)n1 | -7 | 1.27
Cc1ccc(O[C@H]2CCOC[C@H]2NC(=O)CCCn2ccnc2)cn1 | -13 | 1.53
C[C@H](NC(=O)Nc1nc(C(C)(C)C)ns1)C1=CCN(C)CC1 | -5 | 0.9
C#CCOc1cc(CNC(=O)C2=CCCCC2)ccc1OC | -9 | 0.91
Cc1ccc(C)c(-c2cc(C(=O)Nc3sc4c(c3C#N)CC[C@H](C)C4)c3ccccc3n2)c1 | 8 | -0.94
O=C(NCCc1cn2cccnc2n1)c1cn(C2CCCCC2)nn1 | 0 | -0.04
Cn1c(CN2C[C@@H]3CC[C@H]2CN(Cc2ccncc2)C3)nc2ccccc21 | -1 | 0.14
Cc1nnnn1Cc1nc2ccccc2s1 | -19 | 3.03
CC(=O)N1CCOCC1C(=O)NC1CCCC1c1ccc(F)cc1 (stereo unspecified) | 0 | 0.01
CN1CC[C@](C)(CNC(=O)c2ccc(OCc3ccccc3F)cc2)C1 | -10 | 1.85
Cc1cc(C)n2ncc(CN(Cc3noc(C)n3)C(C)C)c2n1 | 2 | -0.17
O=C(NCCc1ccc(Cl)cc1)c1nnc(Cc2ccc(F)cc2)o1 | 12 | -1.94
Cc1cc(C)cc(CCC(=O)Nc2c(N(C)C)nc[nH]c2=O)c1 | -14 | 1.25
CN(CC1CC1)c1ccc(S(C)(=O)=O)cc1C(F)(F)F | -4 | 0.63
N#CCCCn1nnnc1-c1ccncc1 | 0 | -0.04
Cc1ccc(-n2nc(C(=O)NCC3CC3)c(=O)n(Cc3cccc(Cl)c3)c2=O)cc1 | -1 | 0.18
CCc1nnc(CNC(=O)[C@H](C)c2ccccc2F)s1 | 1 | -0.13
COc1ccc2c(c1)N1CCN(c3cnccn3)CC1C(C(=O)NCc1ccccc1F)C2 (stereo unspecified) | 2 | -0.22
Cc1cc(C)cc(C(=O)N2CCN(C(=O)N(C)C)[C@H]3CS(=O)(=O)C[C@H]32)c1 | -3 | 0.28
CCn1cc(C2=NO[C@H](C(=O)Nc3ccc(C)c(F)c3)C2)c(C)n1 | -13 | 1.56
O=C(Nc1ccc(Nc2ccccc2)cc1)c1ccc2c(c1)OCO2 | -8 | 1.53
